This is one part of the list. At the low end of the ranking the order means little.

For the assay, the target named is SIX1 homeodomain (reference allele) (UniProt Q15475). Briefly: universal protein binding microarray. The settings on record: Universal all-10-mer PBM (8x60K, AMADID 030236), 300 nM GST-tagged protein, Alexa Fluor 488 anti-GST; buffer, salt, pH and temperature not stated; high values mean tight binding; most listed sequences are background and not binding sites; double strand, one strand shown.
GGTGTACA: the binding signal worked out at 0.306 E-score. In the case of GATGAGGC it was -0.1 E-score; in that of ACATGAGG, -0.137 E-score. The figure for CCGTTTAA is -0.00389 E-score; for CCGCCCGG it is 0.0433 E-score. The figure for AAGATACA is 0.265 E-score. Regarding CCAAGCAA, the binding signal is -0.0962 E-score. In the case of GGAGCACC it was 0.0657 E-score; in that of CAGTCTTA, -0.145 E-score; in that of AGCAGTGA, 0.0242 E-score. In the case of CATTTTGA it was 0.0474 E-score. In the case of AGCGTCCT it was -0.244 E-score. Regarding CTTATGGA, the binding signal is -0.201 E-score.

In the case of ACGACATA, the binding signal was found to be 0.084 E-score. The figure for GTATACGA is 0.308 E-score; for CAGTTTAA it is -0.0808 E-score. The figure for GGTGCTGA is -0.00048 E-score; for AGGTGGAC it is -0.123 E-score. With AAAGTTTA, the binding signal was -0.167 E-score.

As for AATTTTAG, the binding signal is -0.249 E-score. Turning to GCTTTAAC, the binding signal was -0.149 E-score. Take ATTAGCGA: the binding signal worked out at 7e-05 E-score. The figure for AAGCAACA is -0.186 E-score; for ATTCTCAA it is 0.0887 E-score. The figure for AGACAGGA is -0.00485 E-score; for ACACATAG it is -0.065 E-score; for ATCAATGG it is 0.162 E-score.

ACAAAGGA: the binding signal was -0.00839 E-score. The figure for CCTCAAAC is -0.127 E-score. The figure for CGGCCACC is -0.231 E-score; for GGTTCTCA it is 0.237 E-score. The figure for TGTCAAAA is -0.0702 E-score; for GCTTGCCC it is -0.214 E-score. In the case of AGGTGGGG, the binding signal amounted to 0.00643 E-score. In the case of ACACCGGG it was 0.301 E-score; in that of CTGACTTA, -0.197 E-score. In the case of CTCAAGCC it was -0.0792 E-score. In the case of AGAAGAAA it was -0.209 E-score; in that of CTGTGCAA, -0.109 E-score. For ACCATAAG, the binding signal was -0.0256 E-score.

Turning to AGTTTCGG, the binding signal was -0.247 E-score.

On to CGTGAGAC, for which the binding signal turned out to be 0.252 E-score. Take AATAAATG: the binding signal is -0.294 E-score. As for ACTGTCGG, the binding signal is -0.182 E-score. Turning to AGATGCTC, the binding signal was -0.0346 E-score. The figure for CCGTTGAG is -0.115 E-score. In the case of AGCTGGGC it was -0.159 E-score; in that of CTAGGCCA, -0.285 E-score; in that of CAATCCTC, 0.0493 E-score. In the case of GGAGGTCA it was -0.136 E-score; in that of TCAGTTCA, -0.0765 E-score; in that of CCACGTGG, 0.024 E-score.

ATTATACC: the binding signal was 0.389 E-score. In the case of AATAACAC it was 0.151 E-score.

For AGGACTAC, the binding signal was -0.188 E-score. The figure for CAAAATCA is -0.247 E-score. In the case of ATTACGGA it was 0.0351 E-score; in that of GAAACATA, 0.0439 E-score; in that of CTAAATCC, 0.0532 E-score. In the case of CCATTACC it was -0.158 E-score. As for ATTAGCCG, the binding signal stood at 0.226 E-score. The figure for GAGGCTCA is -0.0463 E-score; for ATGCGCTC it is -0.0418 E-score.

As to ATAGTCGG, the binding signal was -0.0304 E-score. The figure for CCACCTAG is -0.0558 E-score; for ATATCGTC it is 0.382 E-score. The figure for GTCGATTA is -0.033 E-score; for CTTCCGGA it is -0.0895 E-score. In the case of CACAGCCG it was 0.103 E-score; in that of CAAGTTTA, -0.177 E-score; in that of CGAGTAAA, -0.154 E-score. With AAACCCTT, the binding signal was -0.0427 E-score. The figure for CGGTGCCA is -0.0515 E-score. In the case of CATCAGTC it was -0.124 E-score. TCTCAAGA: the binding signal is -0.0536 E-score. AACTCTAC: the binding signal is -0.27 E-score. In the case of CAGTGACC it was -0.0547 E-score; in that of ACATTACC, -0.26 E-score; in that of GTTAAAGA, -0.113 E-score. The figure for CATCCCAA is -0.00605 E-score; for CGTAACAA it is -0.23 E-score. In the case of CGAATTAG it was -0.114 E-score; in that of ACGTACTG, -0.205 E-score; in that of AGGTATGA, 0.242 E-score. As for AACTTTCG, the binding signal was -0.264 E-score.

Turning to AAGAACAG, the binding signal is -0.131 E-score. In the case of ACCGAGCA it was -0.0311 E-score; in that of GGAGGACA, 0.055 E-score. The figure for ATAGAGGG is 0.0444 E-score; for AGTACCAG it is -0.0198 E-score. As to TCTTCGAA, the binding signal was -0.0708 E-score.

In the case of AAGTGTAG, the binding signal is -0.0746 E-score. The figure for GACTCCGA is -0.039 E-score. The figure for ATATTCGA is 0.0818 E-score; for GTCCACAC it is 0.00998 E-score; for AGGAGAAA it is -0.319 E-score. In the case of CTGTTAAA it was -0.219 E-score. For GAGCGAGC, the binding signal is -0.146 E-score.

For CTGTTTTA, the binding signal is -0.0989 E-score. Consider GTTAGGCA, for which the binding signal was -0.297 E-score. In the case of CACAGAGC it was -0.341 E-score; in that of CGCACTAC, 0.000925 E-score; in that of GACAATAC, 0.16 E-score. In the case of ATCATCTA it was 0.304 E-score. In the case of GGGCCGCA it was -0.169 E-score; in that of GACGCCGC, -0.116 E-score. With CATTACCG, the binding signal is -0.137 E-score. In the case of TATACTCA it was 0.192 E-score. Consider ATTCTTTC, for which the binding signal is -0.178 E-score. The figure for CCTACTCC is -0.0716 E-score; for GACGGTCC it is -0.24 E-score; for GCCGAGGC it is -0.0166 E-score. The figure for AATCCCTG is 0.082 E-score.

In the case of GCGGCACC, the binding signal was -0.134 E-score. In the case of ATAAAAGC it was -0.214 E-score. The figure for AGCGCTAA is -0.0845 E-score. The figure for GACTGTGC is -0.21 E-score.

In the case of ATGGTGGC, the binding signal is -0.138 E-score. The figure for GTACACAC is 0.111 E-score; for GTCGAGTA it is 0.0231 E-score; for AGGCGTGG it is -0.101 E-score. In the case of TAGGCTAA it was 0.0328 E-score; in that of CGGATCGA, 0.34 E-score; in that of GGATTCCC, 0.0403 E-score.

Take AGGGTACA: the binding signal is -0.034 E-score. The figure for AGCGGATC is 0.375 E-score; for CATCATGA it is 0.0921 E-score; for GGCCGCCC it is -0.15 E-score.

On to ATGATAAA, for which the binding signal was 0.00022 E-score. The figure for TATTGCGA is 0.232 E-score. ACTACTCG: the binding signal came out at 0.163 E-score. In the case of GTTCCGGA it was 0.0111 E-score; in that of GTTCGGAA, -0.262 E-score; in that of AGTTTACC, -0.189 E-score. Take GGACATGA: the binding signal is -0.0202 E-score. In the case of GATTGGGA it was -0.0578 E-score; in that of TACTGTGA, 0.101 E-score. The figure for ATGGCGCA is -0.0966 E-score; for ATTTTGTA it is -0.231 E-score; for CAGGTTCA it is -0.0522 E-score. With CAGATCGC, the binding signal was 0.284 E-score. Turning to AAAGGACT, the binding signal was -0.24 E-score. Turning to TGCCGGCA, the binding signal is -0.289 E-score. The figure for ACAATGTA is -0.0341 E-score; for CACTTACC it is 0.0711 E-score.

Turning to CCTAGACG, the binding signal amounted to 0.13 E-score. The figure for CTCAGCCA is -0.103 E-score; for ACAATCGT it is -0.187 E-score. With CTGCCATC, the binding signal was -0.0173 E-score. In the case of CGACGTCA it was -0.147 E-score. For the sequence GGAGAAAC, the binding signal was -0.0418 E-score. In the case of GTAGACAA it was -0.0411 E-score; in that of GGACACGA, 0.176 E-score; in that of CGGCTGAC, 0.114 E-score.

Turning to CGCATTCC, the binding signal is -0.18 E-score. In the case of CACGTATA it was 0.304 E-score; in that of AGTAAGTA, 0.0416 E-score; in that of CCAGCCCA, -0.204 E-score. In the case of ACGCACTA it was -0.107 E-score. In the case of AGCACCGG, the binding signal is -0.0286 E-score. In the case of CTGATATA it was 0.358 E-score; in that of AAGTCCAA, -0.275 E-score. The figure for ATCGGAGG is 0.145 E-score; for CAAGGTCG it is -0.147 E-score; for CTTGATGC it is -0.0118 E-score.

Regarding ATGTCGGA, the binding signal was 0.0566 E-score. In the case of CGCTATAC it was 0.254 E-score; in that of AAATGGTC, -0.207 E-score; in that of CACCCCTG, 0.156 E-score.

With CACGGCGC, the binding signal was -0.129 E-score. The figure for AATTTCTA is -0.245 E-score.

CAAACGAG: the binding signal amounted to 0.0049 E-score.
